# According to PubChem BioAssay AID588342 (National Center for Advancing Translational Sciences (NCATS), 2011):
# Screen size: about 360,000 compounds; about 25,000 (6.9%) were called active. Inconclusive results, whose numbers are uncertain, are shown with a selection of clear calls. Calls follow the shape of the dose curve; as a rule, active = well fitted inhibition curve with a large enough effect; inconclusive = small, poorly fitted or top-dose-only effect; inactive = flat fitted curve, though single readings scatter. Where the call is inconclusive, the potency comes from a doubtful curve fit.
# Target: Luciferin 4-monooxygenase (Photinus pyralis) (UniProt P08659)
# Chain of UniProt P08659 (P08659 whole entry, looked up): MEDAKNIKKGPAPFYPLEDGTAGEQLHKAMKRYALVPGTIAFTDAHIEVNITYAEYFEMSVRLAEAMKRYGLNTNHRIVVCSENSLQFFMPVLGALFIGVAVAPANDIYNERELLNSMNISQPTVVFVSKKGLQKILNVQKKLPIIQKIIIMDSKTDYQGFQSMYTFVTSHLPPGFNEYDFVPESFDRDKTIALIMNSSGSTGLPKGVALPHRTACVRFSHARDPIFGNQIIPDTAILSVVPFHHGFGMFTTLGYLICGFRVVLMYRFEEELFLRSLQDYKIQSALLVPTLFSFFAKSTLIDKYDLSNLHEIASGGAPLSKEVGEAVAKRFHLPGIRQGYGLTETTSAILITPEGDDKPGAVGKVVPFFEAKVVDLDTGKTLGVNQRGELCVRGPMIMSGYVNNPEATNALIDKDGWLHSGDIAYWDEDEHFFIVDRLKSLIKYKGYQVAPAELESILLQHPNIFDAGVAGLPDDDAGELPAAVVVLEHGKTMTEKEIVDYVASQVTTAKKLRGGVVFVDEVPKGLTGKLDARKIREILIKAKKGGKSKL
# Assay: qHTS profiling assay for firefly luciferase inhibitor/activator using purifed enzyme and Km concentrations of substrates (counterscreen for miR-21 project); also: nearly all actives have a fitted effect of over 55% in size
# Conditions: purified FLuc, luminescence inhibition; series mostly up to 57.5 µM
# Summary of the method: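 Purified P. pyralis luciferase, 10 nM final, with Km-level 10 uM D-luciferin and 10 uM ATP in 50 mM Tris acetate pH 7.5, 10 mM Mg acetate, 0.01% Tween-20, 0.05% BSA; 6-point qHTS titration about 60 µM downward; luminescence read.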
# Potency is read from the fitted curve at half-maximal effect; tags tell the direction and shape of the fitted curve.
row,Structure (SMILES),Potency
1,O=C(/C=C/Nc1ccccc1C(=O)O)c1cccs1,active: 3.38 µM
2,C=CCNC(=O)Nc1ccc2nc(C)sc2c1,"inconclusive: 26.9 µM [inhibitor, single point]"
3,COc1ccc(N2CCN(C3CCCN(Cc4cccc(C(C)=O)c4)C3)CC2)cc1 (stereo unspecified),inactive
4,CC(=O)C1=C(S(=O)(=O)c2ccc(C)cc2)CS(=O)(=O)C1,"inconclusive: 33.8 µM [inhibitor, partial curve, poor fit]"
5,CC(/C=C1\SC(=S)N(NC(=O)c2ccc(O)cc2)C1=O)=C\c1ccccc1,"inconclusive: 26.9 µM [inhibitor, single point]"
6,Cc1cc(Cl)c(O)c(-n2nc3ccccc3n2)c1,"inconclusive: 21.3 µM [inhibitor, partial curve, poor fit]"
7,Cc1ccc(OCc2csc(N)n2)cc1,active: 23.9 µM
8,Cc1ccc([N+](=O)[O-])c(OCc2ncc(Cl)n2C)c1,"inconclusive: 26.9 µM [inhibitor, partial curve, poor fit]"
9,O=C(Nc1nnc(-c2ccncc2)o1)c1ccc(Br)s1,"inconclusive: 19 µM [inhibitor, partial curve]"
10,O=C(Nc1ccc(N2CCOCC2)cc1)c1ccc2c(c1)OCO2,active: 10.7 µM
11,COc1cccc(/C=N/Nc2ccc([N+](=O)[O-])cn2)c1O,active: 0.757 µM
12,Cc1ccc(Cn2c(C)c3cnn(CC(=O)NC4CCCC4)c(=O)c3c2C)cc1,"inconclusive: 21.3 µM [inhibitor, partial curve, poor fit]"
13,O=C(CN1C(=O)/C(=C2\SC(=S)N(CCS(=O)(=O)O)C2=O)c2ccccc21)Nc1cccc(Br)c1,"inconclusive: 9.53 µM [inhibitor, partial curve, poor fit]"
14,O=C(Nc1c2c(nc3ccccc13)CCCC2)c1ccccc1Br,inactive
15,Cn1c(=O)[nH]c(=O)c2c1nc(CN1CCN(c3ccccc3F)CC1)n2Cc1ccc(F)cc1,inactive
16,Cc1cccc(OCCCn2c(CCNC(=O)C3CCCCC3)nc3ccccc32)c1,"inconclusive: 26.9 µM [inhibitor, partial curve, poor fit]"
17,CCS(=O)(=O)c1ccc(O)c(NC(=O)Nc2ccccc2)c1,inactive
18,Cc1ccc(-c2cc(C(=O)N/N=C/c3ccccc3O)n[nH]2)o1,"inconclusive: 5.36 µM [inhibitor, partial curve, poor fit]"
19,Cn1cc(/C=N\NC(=O)c2cccs2)c2ccccc21,"inconclusive: 2.69 µM [inhibitor, full curve]"
20,Cc1cccc(-n2cnc3cc(C(=O)N4CCc5ccccc54)ccc32)c1,"inconclusive: 33.8 µM [inhibitor, partial curve, poor fit]"
21,Cn1ccc(C(=O)N/N=C/c2c[nH]c3ccccc23)n1,active: 15.1 µM
22,CCN(CC(=O)Nc1ccc(NC(C)=O)cc1)C(=O)c1cccc(S(=O)(=O)N2c3ccccc3CC2C)c1 (stereo unspecified),"inconclusive: 26.9 µM [inhibitor, partial curve, poor fit]"
23,CCc1ccc(CC2S/C(=C(\C#N)C(C)=O)NC2=O)cc1 (stereo unspecified),"inconclusive: 26.9 µM [inhibitor, partial curve]"
24,CCCc1cc(C(=O)N2CCCC(Cc3cccc(Cl)c3)(C(=O)OCC)C2)n(C)n1 (stereo unspecified),"inconclusive: 37.9 µM [inhibitor, partial curve, poor fit]"

row,Structure (SMILES),Potency
1,COc1ccc(CC(=O)NNS(=O)(=O)c2ccc([N+](=O)[O-])cc2)cc1OC,inactive
2,C/C(=N\n1c(C)cc(C)c(C#N)c1=O)c1cccs1,inactive
3,CC(C)(C)c1ccc(C(=O)CCCSC2=C(C#N)C(c3ccco3)C3=C(CCCC3=O)N2)cc1 (stereo unspecified),"inconclusive: 15.1 µM [inhibitor, partial curve, poor fit]"
4,O=C(COC(=O)c1ccccc1Br)Nc1ccc(F)cc1,active: 19 µM
5,Cc1cc(C)c(C(=O)COC(=O)CCn2c(C)csc2=O)cc1C,active: 4.78 µM
6,CCCCOc1ccc(C(=O)Nc2ccc3c(c2)CCCN3C(=O)c2cccs2)cc1,inactive
7,CN(Cc1nc2ccccc2[nH]1)Cc1nc(CC2CC2)no1,"inconclusive: 16.9 µM [inhibitor, partial curve, poor fit]"
8,O=C(CSc1nc2ccccc2[nH]1)Nc1ccccc1F,inactive
9,Clc1ccc(OCc2nnc(-c3ccccc3Br)o2)cc1,"inconclusive: 19 µM [inhibitor, single point]"
10,CC1SCC(=NOCc2ccccc2)CS1 (stereo unspecified),active: 19 µM
11,Cc1ccnc(NC(=O)c2ccccc2NC(=O)C(C)(C)C)c1,inactive
12,CCc1ccc(Nc2nnc(SCc3cc(=O)n4ccsc4n3)s2)cc1,"inconclusive: 23.9 µM [inhibitor, single point]"
13,Oc1ccc(N=Nc2nccs2)c(O)c1,"inconclusive: 23.9 µM [inhibitor, partial curve]"
14,CCOc1ccc2c(c1)C(=NNC(=O)c1ccncc1)c1cc(OCC)ccc1-2,"inconclusive: 4.26 µM [inhibitor, partial curve, poor fit]"
15,CCOc1ccc(C(O)Cc2nc3ccccc3n2C)cc1 (stereo unspecified),inactive
16,CCN(CC(=O)NCc1cccs1)C(=O)c1ccc(NS(=O)(=O)c2cccc([N+](=O)[O-])c2)cc1,inactive
17,COc1ccc(CNC(=O)c2csc3c2CCCC3)cc1,"inconclusive: 26.9 µM [inhibitor, partial curve, poor fit]"
18,O=[N+]([O-])c1cc(-c2cnc3ccccc3n2)ccc1Oc1ccc(F)cc1,"inconclusive: 30.1 µM [inhibitor, single point]"
19,Cc1cn2c(nc(=O)c3cccnc32)s1,inactive
20,O=C(NCCC1=CCCCC1)C(=O)NCc1ccncc1,inactive
21,CCOc1ccc(-c2cccc(NS(=O)(=O)c3ccc(C)s3)c2)nn1,"inconclusive: 37.9 µM [inhibitor, partial curve, poor fit]"
22,Cc1cc(=O)oc(C)c1C(=O)OCC(=O)c1ccccc1,"inconclusive: 30.1 µM [inhibitor, single point]"
23,CCOC(=O)C1CCN(C(=O)c2cc3sc(C)cc3n2C)CC1,inactive
24,CCCCN(CC)C(=O)CSc1nc2n[nH]c(C)c2c(=N)n1-c1ccc(CC)cc1,inactive

row,Structure (SMILES),Potency
1,Cc1ccc(N(C)C(=O)c2sc3nc4n(c(=O)c3c2C)CCCC4)cc1C,"inconclusive: 21.3 µM [inhibitor, partial curve, poor fit]"
2,O=C(NCC1CCC(C(=O)O)CC1)OCc1ccccc1 (stereo unspecified),"inconclusive: 26.9 µM [inhibitor, single point]"
3,CCOC(=O)CNC(=O)CSc1nc(-c2ccccc2)ns1,"inconclusive: 26.9 µM [inhibitor, single point]"
4,CC(=O)c1c(C(=O)O)[nH]c(C(=O)O)c1C,"inconclusive: 19 µM [inhibitor, partial curve, poor fit]"
5,CCCCn1c(NC(=O)c2ccccc2)nc2ccccc21,"inconclusive: 37.9 µM [inhibitor, partial curve, poor fit]"
6,Nc1cc(N)nc(SCCOc2ccccc2)n1,"inconclusive: 21.3 µM [inhibitor, single point]"
7,S=c1[nH]nc(-c2ccncc2)n1/N=C/C=C/c1ccccc1,"inconclusive: 37.9 µM [inhibitor, single point]"
8,O=C1NC(Cc2ccccc2)c2nc3ccccc3c(=O)n2-c2ccc(Cl)cc21 (stereo unspecified),inactive
9,Cc1ccc(NC(=O)Cc2nnc(SCC(=O)NC3=NCCS3)n2C)cc1,"inconclusive: 23.9 µM [inhibitor, partial curve]"
10,O=C(c1ccco1)n1c(=S)nc2ccccn21,active: 3.79 µM
11,COc1cc(OC)cc(C(=O)NNC(=S)Nc2ccc(S(N)(=O)=O)cc2)c1,"inconclusive: 30.1 µM [inhibitor, partial curve, poor fit]"
12,O=C(/C=C/c1cccs1)Nc1nccs1,"inconclusive: 4.78 µM [inhibitor, full curve]"
13,O=C(Nc1ccc2c(c1)oc1ccccc12)c1ccc2c(c1)OCO2,"inconclusive: 3.01 µM [inhibitor, partial curve, poor fit]"
14,O=[N+]([O-])c1ccc(O)c(Nc2c([N+](=O)[O-])ccc3nonc23)c1,"inconclusive: 26.9 µM [inhibitor, partial curve, poor fit]"
15,CCN(CC)CCNC(=O)c1ccc(NC(=O)c2cn(-c3ccc(F)cc3)nc2-c2cccc(OC)c2)cc1,"inconclusive: 23.9 µM [inhibitor, single point]"
16,COC(=O)c1ccccc1NC(=O)[C@H]1O[C@@H]2OC(C)(C)O[C@@H]2[C@H]2OC(C)(C)O[C@H]21,inactive
17,O=c1c2[nH]c3ccccc3c2ncn1C1CCCCC1,"inconclusive: 7.57 µM [inhibitor, full curve]"
18,O=C1CCCN1CCC(=O)N1CCCC(CO)(Cc2ccccc2)C1 (stereo unspecified),active: 16.9 µM
19,O=c1c2sc3ccccc3c2n(Cc2cccc(F)c2)c(=O)n1CCc1ccccc1,"inconclusive: 13.5 µM [inhibitor, partial curve, poor fit]"
20,COc1ccc2sc(-c3ccccc3OC)c(-c3ccc(OC)nc3)c2c1,"inconclusive: 10.7 µM [inhibitor, partial curve, poor fit]"
21,CCC(=O)OCc1cc(=O)n2nc(C3CC3)sc2n1,inactive
22,Clc1ccc2nc(CN3CCCc4ccccc43)cn2c1,"inconclusive: 19 µM [inhibitor, single point]"
23,O=C(Nc1cc([N+](=O)[O-])ccc1O)c1cccc(C(=O)Nc2cc([N+](=O)[O-])ccc2O)c1,"inconclusive: 37.9 µM [inhibitor, partial curve, poor fit]"
